The source of these data is the supplement of paper PMC5998384.

The test system of data set [1] is HeLa Kyoto. Kind of data set: solubility change mitosis vs G1/S (difference of NP-40 vs SDS log2 ratios) (log2 ratio difference); higher = more soluble in mitosis.
Data set [2] has as its system HeLa Kyoto. As to the kind of experiment: solubility in G1/S (NP-40 vs SDS abundance) (log2 ratio); higher = more soluble. The note with it: cell cycle stage: G1/S.
The subject of data set [3] is HeLa Kyoto. As to the kind of experiment: melting temperature (median over replicates), in situ; higher = more thermally stable.
In data set [4] the test system is HeLa Kyoto. As to the kind of experiment: thermal stability score vs G1/S (z-score of summed log2 fold changes over temperatures); higher = more thermally stable than in G1/S.
Setting [5] is: cell cycle stage: early G1 (4.5 h after nocodazole release).
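Throughout, for melting temperature (median over replicates), in situ: HeLa Kyoto cells synchronized by double thymidine or nocodazole block, proteins quantified by TMT10plex mass spectrometry, three independent biological replicates.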
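Throughout, for solubility change mitosis vs G1/S (difference of NP-40 vs SDS log2 ratios): synchronized HeLa Kyoto cells (double thymidine block for G1/S, nocodazole release for mitosis), protein amounts in NP-40 versus SDS lysates quantified by mass spectrometry, three biological replicates.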
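Throughout, for solubility in G1/S (NP-40 vs SDS abundance): HeLa Kyoto cells arrested at G1/S by double thymidine block, proteins quantified by TMT10plex mass spectrometry in mild NP-40 versus SDS extracts, three biological replicates.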
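Throughout, for thermal stability score vs G1/S (z-score of summed log2 fold changes over temperatures): synchronized HeLa Kyoto cells, proteins quantified by TMT10plex mass spectrometry, three biological replicates, mitosis taken 0.5 h after nocodazole release, G1/S directly after double thymidine block.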

On to AXL (sequence left out), for which, in the data set with HeLa Kyoto [1], the “solubility change mitosis (log2)” value was found to be 0.155. The “solubility in G1/S (log2)” value with HeLa Kyoto [2] is -0.162.
On to COX5B (sequence left out), for which the melting temperature in the data set with HeLa Kyoto [3] (cell cycle stage: G1/S) turned out to be 54.3 °C; in the data set on HeLa Kyoto [3] (cell cycle stage: mitosis), 52.7 °C. In the data set on HeLa Kyoto [1], the “solubility change mitosis (log2)” value came to 0.0454. For the same substance, the thermal stability score was -2.92 in the data set with HeLa Kyoto [4] (setting [5]) and -4.57 in the data set on HeLa Kyoto [4] (cell cycle stage: mitosis). Moreover, the “solubility in G1/S (log2)” value in the data set with HeLa Kyoto [2] came out at 0.191.
Turning to DIS3L (sequence left out), in the data set with HeLa Kyoto [1], the “solubility change mitosis (log2)” value is -0.11. The “solubility in G1/S (log2)” value with HeLa Kyoto [2] is -0.191.
In the case of FKBP10 (sequence left out), the melting temperature was 54.4 °C in the data set on HeLa Kyoto [3] (cell cycle stage: G1/S) and 55.8 °C with HeLa Kyoto [3] (cell cycle stage: mitosis). The “solubility change mitosis (log2)” value in the data set on HeLa Kyoto [1] was -0.112. Also, the thermal stability score with HeLa Kyoto [4] (setting [5]) is 1.33; in the data set with HeLa Kyoto [4] (cell cycle stage: mitosis) it was 3.39. Moreover, in the data set on HeLa Kyoto [2], the “solubility in G1/S (log2)” value was 0.742.
On to GNL1 (sequence left out), for which the melting temperature with HeLa Kyoto [3] (cell cycle stage: G1/S) was 50.7 °C; with HeLa Kyoto [3] (cell cycle stage: mitosis), 50.1 °C. Further, the “solubility change mitosis (log2)” value with HeLa Kyoto [1] was -0.16. The values for the thermal stability score in the data set with HeLa Kyoto [4] (setting [5]) and with HeLa Kyoto [4] (cell cycle stage: mitosis) were -0.647 and 0.0916, respectively. Further, in the data set with HeLa Kyoto [2], the “solubility in G1/S (log2)” value was -0.0609.
On to KMT2D, for which the melting temperature turned out to be 50.9 °C in the data set on HeLa Kyoto [3] (cell cycle stage: G1/S) and 51.1 °C in the data set on HeLa Kyoto [3] (cell cycle stage: mitosis). Further, the “solubility change mitosis (log2)” value in the data set on HeLa Kyoto [1] was -0.00845. For the same substance, the figures for the thermal stability score in the data set with HeLa Kyoto [4] (setting [5]) and in the data set with HeLa Kyoto [4] (cell cycle stage: mitosis) were 0.207 and 1.69, respectively. In addition, the “solubility in G1/S (log2)” value in the data set on HeLa Kyoto [2] is -0.125.
As to MAD2L1 (sequence left out), the melting temperature in the data set with HeLa Kyoto [3] (cell cycle stage: G1/S) is 49.2 °C; in the data set with HeLa Kyoto [3] (cell cycle stage: mitosis), 51 °C. The “solubility change mitosis (log2)” value with HeLa Kyoto [1] was -0.252. The thermal stability score was 1.35 with HeLa Kyoto [4] (setting [5]) and 1.8 with HeLa Kyoto [4] (cell cycle stage: mitosis). In the data set with HeLa Kyoto [2], the “solubility in G1/S (log2)” value was found to be 0.0553.
On to MCM2 (sequence left out), for which the results for the melting temperature in the data set on HeLa Kyoto [3] (cell cycle stage: G1/S) and in the data set on HeLa Kyoto [3] (cell cycle stage: mitosis) were 50.6 °C and 50.7 °C, respectively. Moreover, in the data set on HeLa Kyoto [1], the “solubility change mitosis (log2)” value was -0.0607. For the same substance, the thermal stability score in the data set with HeLa Kyoto [4] (setting [5]) stood at 1.47; in the data set on HeLa Kyoto [4] (cell cycle stage: mitosis), 2.62. Also, in the data set with HeLa Kyoto [2], the “solubility in G1/S (log2)” value came to 0.0081.
In the case of MET (sequence left out), the melting temperature in the data set with HeLa Kyoto [3] (cell cycle stage: G1/S) was found to be 50.8 °C; with HeLa Kyoto [3] (cell cycle stage: mitosis) it was 50.7 °C. Moreover, in the data set with HeLa Kyoto [1], the “solubility change mitosis (log2)” value was -0.106. Besides, the thermal stability score in the data set with HeLa Kyoto [4] (setting [5]) worked out at 0.399; in the data set with HeLa Kyoto [4] (cell cycle stage: mitosis) it was 1.18. Besides, in the data set on HeLa Kyoto [2], the “solubility in G1/S (log2)” value is -0.021.
On to MPG (sequence left out), for which the melting temperature in the data set on HeLa Kyoto [3] (cell cycle stage: G1/S) stood at 50.5 °C; in the data set on HeLa Kyoto [3] (cell cycle stage: mitosis), 52.6 °C. In the data set on HeLa Kyoto [1], the “solubility change mitosis (log2)” value was found to be 0.229. The thermal stability score was 0.782 with HeLa Kyoto [4] (setting [5]) and 1.26 in the data set on HeLa Kyoto [4] (cell cycle stage: mitosis). The “solubility in G1/S (log2)” value in the data set on HeLa Kyoto [2] is -0.00106.
Consider “MRAHPGGGRCCPEQEEGESAAGGSGAGGDSAIEQGGQGSALAPSPVSGVRREGARGGGRGRGRWKQAGRGGGVCGRGRGRGRGRGRGRGRGRGRGRPPSGGSGLGGDGGGCGGGGSGGGGAPRREPVPFPSGSAGPGPRGPRATES[skipping about 60 residues]SKLQKNKQRLRNDPLNQNKGKPDLNTTLPIRQTASIFKQPVTKVTNHPSNKVKSDPQRMNEQPRQLFWEKRLQGLSASDVTEQIIKTMELPKGLQGVGPGSNDETLLSAVASALHTSSAPITGQVSAAVEKNPAVWLNTSQPLCKAFIVTDEDIRKQEERVQQVRKKLEEALMADILSRAADTEEMDIEMDSGDEA [MBD2]”, for which the melting temperature with HeLa Kyoto [3] (cell cycle stage: G1/S) was 47.3 °C; in the data set with HeLa Kyoto [3] (cell cycle stage: mitosis), 51.1 °C. Further, the “solubility change mitosis (log2)” value in the data set on HeLa Kyoto [1] came out at 0.242. Also, the “solubility in G1/S (log2)” value with HeLa Kyoto [2] came to 0.398.
On to MTCL1 (sequence left out), for which the melting temperature in the data set with HeLa Kyoto [3] (cell cycle stage: G1/S) is 49.4 °C; in the data set on HeLa Kyoto [3] (cell cycle stage: mitosis), 49.7 °C. Further, the “solubility change mitosis (log2)” value with HeLa Kyoto [1] turned out to be 0.182. The thermal stability score in the data set with HeLa Kyoto [4] (setting [5]) is 0.907; with HeLa Kyoto [4] (cell cycle stage: mitosis) it was 0.291. Further, the “solubility in G1/S (log2)” value in the data set with HeLa Kyoto [2] is -0.075.
On to MVP (sequence left out), for which the results for the melting temperature in the data set with HeLa Kyoto [3] (cell cycle stage: G1/S) and in the data set on HeLa Kyoto [3] (cell cycle stage: mitosis) were 52.7 °C and 51.6 °C, respectively. Also, the “solubility change mitosis (log2)” value in the data set with HeLa Kyoto [1] amounted to 0.00478. For the same substance, the thermal stability score was -2.41 in the data set with HeLa Kyoto [4] (setting [5]) and -4.22 with HeLa Kyoto [4] (cell cycle stage: mitosis). Moreover, the “solubility in G1/S (log2)” value in the data set on HeLa Kyoto [2] is -0.0452.
Consider NDUFA9 (sequence left out), for which the values for the melting temperature with HeLa Kyoto [3] (cell cycle stage: G1/S) and with HeLa Kyoto [3] (cell cycle stage: mitosis) were 50.7 °C and 50.1 °C, respectively. Further, in the data set on HeLa Kyoto [1], the “solubility change mitosis (log2)” value was -0.0973. Also, the thermal stability score with HeLa Kyoto [4] (setting [5]) was 0.953; in the data set on HeLa Kyoto [4] (cell cycle stage: mitosis), 2.32. For the same substance, the “solubility in G1/S (log2)” value with HeLa Kyoto [2] was -0.48.
NDUFS4 (sequence left out): the melting temperature came to 52.9 °C in the data set with HeLa Kyoto [3] (cell cycle stage: G1/S) and 52.5 °C with HeLa Kyoto [3] (cell cycle stage: mitosis). Further, the “solubility change mitosis (log2)” value in the data set on HeLa Kyoto [1] was found to be 0.0161. Further, the values for the thermal stability score with HeLa Kyoto [4] (setting [5]) and with HeLa Kyoto [4] (cell cycle stage: mitosis) were -1.24 and -4.28, respectively. For the same substance, the “solubility in G1/S (log2)” value with HeLa Kyoto [2] came to 0.164.
As to NDUFS7 (sequence left out), the melting temperature with HeLa Kyoto [3] (cell cycle stage: G1/S) amounted to 52.2 °C; in the data set on HeLa Kyoto [3] (cell cycle stage: mitosis), 52.1 °C. The “solubility change mitosis (log2)” value in the data set on HeLa Kyoto [1] was found to be 0.0189. Besides, the thermal stability score in the data set on HeLa Kyoto [4] (setting [5]) is -0.183; in the data set with HeLa Kyoto [4] (cell cycle stage: mitosis) it was -0.803. Further, the “solubility in G1/S (log2)” value in the data set with HeLa Kyoto [2] was 0.171.
With PCSK9 (sequence left out), the melting temperature in the data set on HeLa Kyoto [3] (cell cycle stage: G1/S) was found to be 53.6 °C; in the data set on HeLa Kyoto [3] (cell cycle stage: mitosis) it was 53.5 °C. In addition, the “solubility change mitosis (log2)” value in the data set with HeLa Kyoto [1] is -0.0179. In addition, the thermal stability score with HeLa Kyoto [4] (setting [5]) was determined as 4.01; with HeLa Kyoto [4] (cell cycle stage: mitosis) it was 3.53. Further, in the data set with HeLa Kyoto [2], the “solubility in G1/S (log2)” value is -0.0148.
For PPAT (sequence left out), the melting temperature came to 58.8 °C in the data set with HeLa Kyoto [3] (cell cycle stage: G1/S) and 58.6 °C with HeLa Kyoto [3] (cell cycle stage: mitosis). For the same substance, the “solubility change mitosis (log2)” value in the data set on HeLa Kyoto [1] was -0.1. In addition, the thermal stability score was -3.24 in the data set with HeLa Kyoto [4] (setting [5]) and -3.13 in the data set on HeLa Kyoto [4] (cell cycle stage: mitosis). Moreover, the “solubility in G1/S (log2)” value in the data set with HeLa Kyoto [2] was -0.0446.
With PSMD3 (sequence left out), the melting temperature in the data set with HeLa Kyoto [3] (cell cycle stage: G1/S) was found to be 53.6 °C; in the data set on HeLa Kyoto [3] (cell cycle stage: mitosis) it was 52.9 °C. The “solubility change mitosis (log2)” value in the data set on HeLa Kyoto [1] was -0.0429. In addition, the thermal stability score in the data set with HeLa Kyoto [4] (setting [5]) came out at 1.67; in the data set with HeLa Kyoto [4] (cell cycle stage: mitosis), 4.21. In addition, the “solubility in G1/S (log2)” value in the data set on HeLa Kyoto [2] stood at 0.0712.
On to RANBP2 (sequence left out), for which the melting temperature with HeLa Kyoto [3] (cell cycle stage: G1/S) was 46.1 °C; in the data set on HeLa Kyoto [3] (cell cycle stage: mitosis) it was 48.7 °C. In addition, the “solubility change mitosis (log2)” value in the data set with HeLa Kyoto [1] came out at 0.301. Further, the thermal stability score with HeLa Kyoto [4] (setting [5]) was 4.37; with HeLa Kyoto [4] (cell cycle stage: mitosis) it was 10.4. The “solubility in G1/S (log2)” value in the data set on HeLa Kyoto [2] is -0.575.
Turning to VAPB (sequence left out), the melting temperature in the data set with HeLa Kyoto [3] (cell cycle stage: G1/S) stood at 52.4 °C; with HeLa Kyoto [3] (cell cycle stage: mitosis), 52.9 °C. In addition, in the data set on HeLa Kyoto [1], the “solubility change mitosis (log2)” value is 0.0358. Moreover, the results for the thermal stability score in the data set on HeLa Kyoto [4] (setting [5]) and in the data set on HeLa Kyoto [4] (cell cycle stage: mitosis) were 1.18 and 1.24, respectively. For the same substance, the “solubility in G1/S (log2)” value with HeLa Kyoto [2] came out at 0.772.
